As a reminder, the % Inhibition is the relative decrease from the control value, in per cent.

Here are results for 23 compounds from ChEMBL document CHEMBL4888484, “Replenishing the malaria drug discovery pipeline: Screening and hit evaluation of the MMV Hit Generation Library 1 (HGL1) against asexual blood stage Plasmodium falciparum ,using a nano luciferase reporter read-out” (2022).

About 540 (0.36%) of roughly 150,000 compounds showed an effect of 50% or more. The list shows a part of the results.

For this experiment, the system named is Plasmodium falciparum. The experiment can be described thus: Primary screen in NF54 nanoGlo assay, in single point, at 2uM, 72h; a lower Z score goes with more inhibition. The class given is functional, Erythrocyte. As to conditions: timepoint 72 hour.
Take `CC1CCN(C(=O)c2cnn(C3CCCNC3)c2)c2c(O)cccc21` (stereo unspecified): the “% Inhibition” value was -3% and the Z score is on record as 0.36.

For `Cc1ccc(S(=O)(=O)N2C[C@@H]3OCC(=O)N(Cc4ccc(F)cc4)[C@@H]3C2)cc1`, the “% Inhibition” value is reported as -8% and the Z score worked out at 1.28.

For the compound `Cn1ccc2cc(CCC(=O)N3CCCC3)ccc21`, the “% Inhibition” value was -10% and the Z score is 1.6.

Turning to `Cc1cc(Cl)cc2c(N3CCOC[C@@H](CN(C)C)C3)ccnc12`, the “% Inhibition” value is on record as -7% and the Z score stood at 1.

As for `Cc1ncsc1C(=O)Nc1cccc2nccn12`, the “% Inhibition” value is reported as -8% and the Z score is 1.24.

`COc1cccc(C(=O)N2CC[C@@H]3CN(S(C)(=O)=O)[C@@H]3C2)c1C`: the “% Inhibition” value is -8% and the Z score was 1.06.

Turning to `COC1CCCC1C1COCCN1CCN1CCCS1(=O)=O` (stereo unspecified), the “% Inhibition” value is on record as -12% and the Z score came out at 2.16.

Take `CC(=O)NCC(=O)N(c1ccc(C)cc1)C1(C(=O)Nc2ccccc2C)CCCCC1`: the “% Inhibition” value worked out at 9% and the Z score is -1.46.

On to `c1cncc(CCNc2ncnc3sccc23)c1`, for which the “% Inhibition” value is -1% and the Z score is 0.16.

For the compound `CC(C)(C)c1cc(CN2CCc3[nH]cnc3[C@@H]2c2ccsc2)n[nH]1`, the “% Inhibition” value was -11% and the Z score is 1.45.

Consider `CC(C)c1nccc(N[C@H]2CCC[C@@H]2N(C)C)n1`, for which the “% Inhibition” value was -6% and the Z score turned out to be 0.79.

In the case of `CCN(CC)c1ccc(NC(=O)[C@H](C)Oc2ccc(=O)n(-c3ccc(C)c(C)c3)n2)c(C)c1`, the “% Inhibition” value is given as -2% and the Z score is reported as 0.39.

Consider `Cc1c(C(=O)NCc2ccnc(-n3ccnc3C)c2)oc2c1C(=O)CC(C)(C)C2`, for which the “% Inhibition” value is -1% and the Z score was 0.19.

As for `CCCc1cc([C@@H]2CCCN2Cc2c[nH]nc2-c2ccc(OC)c(OC)c2)no1`, the “% Inhibition” value is given as -10% and the Z score turned out to be 1.35.

For `CCN1CC[C@@]2(CCC1=O)CN(C/C=C/c1ccc(OC)cc1)CCN2C`, the “% Inhibition” value amounted to 5% and the Z score is reported as -0.97.

In the case of `Cc1nc(C)c(Cc2cccc(C(F)(F)F)c2)c(N2CCN(C(=O)c3ccc(Cl)c(Cl)c3)CC2)n1`, the “% Inhibition” value is -10% and the Z score was 1.06.

As for `Cc1ccc(OC[C@H]2CN3CCOB(OCC3)O2)cc1`, the “% Inhibition” value is -4% and the Z score is on record as 0.52.

With `CC(=O)c1ccc(NC(=O)CNc2ccc([C@@H](C#N)c3ccccc3)c(Cl)c2)cc1`, the “% Inhibition” value amounted to 14% and the Z score is -1.75.

Regarding `O=C(O)CCCN(Cc1cccc(Cl)c1)Cc1cnc2n1CCC2`, the “% Inhibition” value came to 9% and the Z score is listed as -1.22.

Turning to `O=C(O)c1ccccc1-c1c(-c2ccccc2)ncn1C[C@H]1COCCO1`, the “% Inhibition” value worked out at 3% and the Z score is reported as -0.58.

For the compound `CC1CC(CNC(=O)C(C)n2ccc3ccccc3c2=O)CC(C)O1` (stereo unspecified), the “% Inhibition” value is reported as -14% and the Z score turned out to be 3.01.

For the compound `CCc1cccc(C)c1NC(=O)C(CC)CC`, the “% Inhibition” value is -11% and the Z score is 2.1.

Consider `CC(=O)Nc1cccc(C(=O)N(c2ccc(C)cc2)C2(C(=O)Nc3c(C)cccc3C)CCCCC2)c1`, for which the “% Inhibition” value was -22% and the Z score turned out to be 2.91.
